# Experimental data taken from a collection of fitness landscapes (doi:10.1126/science.1257360).
# Some of the results follow.
# B1: PhoQ; a variant is named by its letters at X, in order, P23837 (parent)
# chain: MKKLLRLFFPLSLRVRFLLATAAVVLVLSLAYGMVALIGYSVSFDKTTFRLLRGESNLFYTLAKWENNKLHVELPENIDKQSPTMTLIYDENGQLLWAQRDVPWLMKMIQPDWLKSNGFHEIEADVNDTSLLLSGDHSIQQQLQEVREDDDDAEMTHSVAVNVYPATSRMPKLTIVVVDTIPVELKSSYMVWSWFIYVLSANLLLVIPLLWVAAWWSLRPIEALAKEVRELEEHNRELLNPATTRELTSLVRNLNRLLKSERERYDKYRTTLTDLTHSLKTPLXXLQXXLRSLRSEKMSVSDAEPVMLEQISRISQQIGYYLHRASMRGGTLLSRELHPVAPLLDNLTSALNKVYQRKGVNISLDISPEISFVGEQNDFVEVMGNVLDNACKYCLEFVEISARQTDEHLYIVVEDDGPGIPLSKREVIFDRGQRVDTLRPGQGVGLAVAREITEQYEGKIVAGESMLGGARMEVIFGRQHSAPKDE
# Variants of: B1
# Assay: enrichment ratio after two sorts for PhoP signalling (ratio (wild type AVST 3.29)); higher = more functional
# Settings: with PhoP (E. coli)
row,Variant,enrichment ratio
1,AWIP,≤ 0.25
2,LQVP,≤ 0.25
3,TVFC,≤ 0.25
4,ASAT,10.1
5,LDCH,≤ 0.25
6,VELR,≤ 0.25
7,KGNC,≤ 0.25
8,ENKV,≤ 0.25
9,PMYK,≤ 0.25
10,RVQS,≤ 0.25
11,STEY,≤ 0.25
12,FRHA,≤ 0.25
13,ANKH,≤ 0.25
14,HGFC,≤ 0.25
15,GYMQ,≤ 0.25
16,LQFI,≤ 0.25
17,FHIC,≤ 0.25
18,TWRN,≤ 0.25
19,SHNC,0.752
20,NVPC,≤ 0.25
21,TNEF,≤ 0.25
22,PYIV,≤ 0.25
23,APQY,≤ 0.25
24,VPFR,≤ 0.25

row,Variant,enrichment ratio
1,ADMP,≤ 0.25
2,WEIN,≤ 0.25
3,WDKL,≤ 0.25
4,WSCT,≤ 0.25
5,EFWH,≤ 0.25
6,DWDP,≤ 0.25
7,QFVQ,≤ 0.25
8,FWYH,≤ 0.25
9,VMGV,≤ 0.25
10,LNNH,≤ 0.25
11,FWNK,≤ 0.25
12,SFMI,≤ 0.25
13,RCYA,≤ 0.25
14,SLGC,0.319
15,GIIA,4.87
16,VFGM,≤ 0.25
17,HDKE,≤ 0.25
18,FRQS,≤ 0.25
19,SLMN,9.38
20,TCWN,14.9
21,KMSH,≤ 0.25
22,ANRI,≤ 0.25
23,LAPA,≤ 0.25
24,ISLT,0.863

row,Variant,enrichment ratio
1,APTI,≤ 0.25
2,HYML,≤ 0.25
3,HCNR,≤ 0.25
4,IMEL,≤ 0.25
5,ANNT,≤ 0.25
6,WSDA,≤ 0.25
7,TEEA,≤ 0.25
8,DRRM,≤ 0.25
9,YGDL,≤ 0.25
10,HQCA,≤ 0.25
11,PPNK,≤ 0.25
12,VPTP,≤ 0.25
13,FKPI,≤ 0.25
14,QHDS,29.2
15,QCSM,3.85
16,FATF,0.319
17,IVDR,≤ 0.25
18,GSMF,2.22
19,HNEL,≤ 0.25
20,DKIL,≤ 0.25
21,VYYC,≤ 0.25
22,SECF,13.9
23,HKWS,≤ 0.25
24,EIEW,≤ 0.25

row,Variant,enrichment ratio
1,LDLT,≤ 0.25
2,ILGS,≤ 0.25
3,RPWD,≤ 0.25
4,TVRR,≤ 0.25
5,TAST,10.8
6,RFNT,≤ 0.25
7,ECWY,≤ 0.25
8,RNWL,≤ 0.25
9,TLRW,≤ 0.25
10,WKTE,≤ 0.25
11,WEWV,≤ 0.25
12,KAED,≤ 0.25
13,GLWW,≤ 0.25
14,NYDD,≤ 0.25
15,NDAR,≤ 0.25
16,YNFK,≤ 0.25
17,TTNQ,2.31
18,MQHC,≤ 0.25
19,LPKL,≤ 0.25
20,KCFV,≤ 0.25
21,GQDC,≤ 0.25
22,MGKR,≤ 0.25
23,GAFG,≤ 0.25
24,STTQ,6.67

row,Variant,enrichment ratio
1,MVDH,≤ 0.25
2,PECS,≤ 0.25
3,LSSI,≤ 0.25
4,AFVR,≤ 0.25
5,AWVG,≤ 0.25
6,VTPD,≤ 0.25
7,VSEQ,≤ 0.25
8,TQMP,≤ 0.25
9,NKKV,≤ 0.25
10,PEYY,≤ 0.25
11,AETT,3.23
12,RVSI,≤ 0.25
13,YSDC,≤ 0.25
14,DELC,≤ 0.25
15,QSAL,6.48
16,QEKV,≤ 0.25
17,LPNW,0.366
18,QDKW,≤ 0.25
19,MSNI,≤ 0.25
20,TCQP,≤ 0.25
21,REYG,≤ 0.25
22,RAFA,≤ 0.25
23,LTKY,≤ 0.25
24,IPID,≤ 0.25

row,Variant,enrichment ratio
1,THPR,≤ 0.25
2,MYER,≤ 0.25
3,RHLV,≤ 0.25
4,EVHM,≤ 0.25
5,TSED,≤ 0.25
6,MIHH,5.99
7,LYMK,≤ 0.25
8,PYWS,≤ 0.25
9,YNRF,≤ 0.25
10,SCLR,8.5
11,YPYQ,≤ 0.25
12,LHYL,≤ 0.25
13,DMYW,≤ 0.25
14,SKYC,≤ 0.25
15,LMAG,≤ 0.25
16,RVQR,≤ 0.25
17,DWPL,≤ 0.25
18,INGM,≤ 0.25
19,WYER,≤ 0.25
20,AVTN,9.32
21,DEIP,≤ 0.25
22,MHFI,≤ 0.25
23,GQIG,23.8
24,DRMM,≤ 0.25

row,Variant,enrichment ratio
1,KCAD,≤ 0.25
2,SNPI,1.76
3,AHYG,≤ 0.25
4,YCWH,≤ 0.25
5,EHHN,≤ 0.25
6,WCMS,≤ 0.25
7,MFAQ,≤ 0.25
8,VNMC,1.44
9,VWEQ,≤ 0.25
10,LTID,≤ 0.25
11,RCEA,≤ 0.25
12,CHFI,≤ 0.25
13,KLQA,≤ 0.25
14,IFYY,≤ 0.25
15,MFHC,≤ 0.25
16,EHYA,≤ 0.25
17,SYGR,≤ 0.25
18,LYLS,≤ 0.25
19,SNKA,≤ 0.25
20,QAWN,7.69
21,VNMA,≤ 0.25
22,GNPW,≤ 0.25
23,HGFV,≤ 0.25
24,VQPE,≤ 0.25

row,Variant,enrichment ratio
1,PRTH,≤ 0.25
2,FNIR,≤ 0.25
3,MHTV,≤ 0.25
4,WNCL,≤ 0.25
5,HEVV,≤ 0.25
6,NFCW,≤ 0.25
7,GRQN,≤ 0.25
8,HGYY,≤ 0.25
9,ELNA,≤ 0.25
10,FILW,≤ 0.25
11,PEPV,≤ 0.25
12,DHHC,≤ 0.25
13,SKKP,≤ 0.25
14,TNLC,13.5
15,PRWV,≤ 0.25
16,DQQH,≤ 0.25
17,PMPI,≤ 0.25
18,IEHY,≤ 0.25
19,WYHN,≤ 0.25
20,YEKS,≤ 0.25
21,YRSE,≤ 0.25
22,WHFQ,1.98
23,KREI,≤ 0.25
24,GPCD,≤ 0.25

row,Variant,enrichment ratio
1,NWQC,≤ 0.25
2,NITA,≤ 0.25
3,WYTS,≤ 0.25
4,SALQ,17.5
5,HMFS,≤ 0.25
6,FCNR,≤ 0.25
7,GEAR,≤ 0.25
8,AKPP,≤ 0.25
9,INQL,≤ 0.25
10,SKAT,5.34
11,FVSS,≤ 0.25
12,WYFP,≤ 0.25
13,YSWG,≤ 0.25
14,ACKF,≤ 0.25
15,IMTA,≤ 0.25
16,VKGW,≤ 0.25
17,PTHV,≤ 0.25
18,LYEF,≤ 0.25
19,FMSF,≤ 0.25
20,WKFA,≤ 0.25
21,YRMS,≤ 0.25
22,FMYP,≤ 0.25
23,YKMQ,≤ 0.25
24,LPER,≤ 0.25

row,Variant,enrichment ratio
1,FHCT,≤ 0.25
2,KYNT,≤ 0.25
3,RMAE,≤ 0.25
4,TITS,15.9
5,MFKS,≤ 0.25
6,DYHY,≤ 0.25
7,PPMQ,≤ 0.25
8,HGFP,≤ 0.25
9,ESTC,≤ 0.25
10,RKNS,≤ 0.25
11,RHQI,≤ 0.25
12,IGET,≤ 0.25
13,YHPR,≤ 0.25
14,EFWE,≤ 0.25
15,KMCD,≤ 0.25
16,PMGN,≤ 0.25
17,IVSG,≤ 0.25
18,RHKD,≤ 0.25
19,IYGN,≤ 0.25
20,WYHD,≤ 0.25
21,NQFI,≤ 0.25
22,MAHI,24.7
23,ITRP,≤ 0.25
24,VVTH,≤ 0.25

row,Variant,enrichment ratio
1,HNER,≤ 0.25
2,WCLR,≤ 0.25
3,HTLW,≤ 0.25
4,QLGR,≤ 0.25
5,FMRN,≤ 0.25
6,IMGS,≤ 0.25
7,FKVQ,≤ 0.25
8,VCSC,≤ 0.25
9,IWGS,≤ 0.25
10,HHRC,≤ 0.25
11,FAIY,≤ 0.25
12,GIMG,8.1
13,FPAV,≤ 0.25
14,HANL,≤ 0.25
15,YDMQ,≤ 0.25
16,TYLV,2.37
17,WSWF,≤ 0.25
18,SAWW,≤ 0.25
19,HGLL,9.56
20,TMFF,≤ 0.25
21,YTPH,≤ 0.25
22,ITRQ,≤ 0.25
23,FGLF,2.06
24,SHMM,2.18

row,Variant,enrichment ratio
1,EQVD,≤ 0.25
2,PGVR,≤ 0.25
3,LDRT,≤ 0.25
4,YAPF,≤ 0.25
5,QMHL,4.14
6,FNPC,≤ 0.25
7,PIYA,≤ 0.25
8,AFTF,≤ 0.25
9,TISP,≤ 0.25
10,SQFT,≤ 0.25
11,PMWH,≤ 0.25
12,DCIQ,≤ 0.25
13,AKII,13.6
14,HSTQ,≤ 0.25
15,KKCM,≤ 0.25
16,HEQY,≤ 0.25
17,QNYR,≤ 0.25
18,KLHA,≤ 0.25
19,SIDV,≤ 0.25
20,RKNR,≤ 0.25
21,GPNY,≤ 0.25
22,EPRV,≤ 0.25
23,IKWS,≤ 0.25
24,HNCG,≤ 0.25

row,Variant,enrichment ratio
1,WAYQ,≤ 0.25
2,FKTV,≤ 0.25
3,YGDN,≤ 0.25
4,CSVP,≤ 0.25
5,AMMY,7.81
6,IVMA,≤ 0.25
7,LRAD,≤ 0.25
8,VVGV,≤ 0.25
9,MYVM,≤ 0.25
10,SAMH,2.95
11,FGHF,≤ 0.25
12,FPCD,≤ 0.25
13,RGCF,≤ 0.25
14,RTIP,≤ 0.25
15,NMIR,≤ 0.25
16,NARK,≤ 0.25
17,DVTV,≤ 0.25
18,QQPN,≤ 0.25
